Measured values reported in the supplement of paper PMC3334620.
In all, about 33,000 sequences were measured (“E-score (-0.5 to 0.5)”: median about -0.035, highest 2% from about 0.35 on). This is one part of the list.

biological target: T1, Pdr3 (UniProt P33200); test: PBM E-score (8-mer binding enrichment) (E-score (-0.5 to 0.5)); higher = stronger / more preferred TF binding; most listed sequences are background and not binding sites; conditions: protein concentration: 200 nM; construct: GST-full length
T1 sequence: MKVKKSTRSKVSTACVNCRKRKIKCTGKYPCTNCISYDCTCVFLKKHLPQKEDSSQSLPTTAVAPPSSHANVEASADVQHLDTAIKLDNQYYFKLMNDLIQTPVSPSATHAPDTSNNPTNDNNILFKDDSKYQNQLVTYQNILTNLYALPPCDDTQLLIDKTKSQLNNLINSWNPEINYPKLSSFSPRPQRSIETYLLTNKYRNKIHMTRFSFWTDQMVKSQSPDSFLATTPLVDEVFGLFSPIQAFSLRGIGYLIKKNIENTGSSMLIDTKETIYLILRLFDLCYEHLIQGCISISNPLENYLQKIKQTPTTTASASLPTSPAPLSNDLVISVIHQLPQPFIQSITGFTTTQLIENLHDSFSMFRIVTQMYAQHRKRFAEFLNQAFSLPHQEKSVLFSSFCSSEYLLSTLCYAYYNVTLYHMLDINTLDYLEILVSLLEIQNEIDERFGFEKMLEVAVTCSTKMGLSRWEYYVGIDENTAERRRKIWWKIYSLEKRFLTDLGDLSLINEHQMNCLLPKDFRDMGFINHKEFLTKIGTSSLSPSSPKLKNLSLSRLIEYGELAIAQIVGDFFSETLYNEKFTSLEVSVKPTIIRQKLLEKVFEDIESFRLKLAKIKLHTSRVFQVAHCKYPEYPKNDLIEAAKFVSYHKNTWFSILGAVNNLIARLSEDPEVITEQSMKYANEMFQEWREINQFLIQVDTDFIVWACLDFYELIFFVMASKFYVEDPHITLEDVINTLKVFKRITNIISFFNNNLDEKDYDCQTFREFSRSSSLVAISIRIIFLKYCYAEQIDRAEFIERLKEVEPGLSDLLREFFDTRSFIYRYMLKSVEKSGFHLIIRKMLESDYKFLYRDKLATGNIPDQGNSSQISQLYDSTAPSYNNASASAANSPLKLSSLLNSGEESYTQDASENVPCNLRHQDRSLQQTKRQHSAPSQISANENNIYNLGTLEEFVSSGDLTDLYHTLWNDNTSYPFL
Outline: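 GST-tagged yeast TFs (full-length or DNA-binding domain) were made by PURExpress in vitro transcription/translation and applied at about 100-200 nM to universal all-10-mer Agilent arrays. The arrays were made double-stranded by primer extension, on fresh or once-stripped slides. Bound protein was detected with fluorescent anti-GST, and scans were normalised with masliner. Each ungapped eight-base word, pooled with its reverse complement, received an E-score (modified Wilcoxon-Mann-Whitney statistic) from the Universal PBM Analysis Suite.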

In order of falling “PBM E-score” value:
1. CGGAAGCA  0.428
2. CCCGGAGA  0.387
3. ACGGACAA  0.351
4. GCAGCGGA  0.332
5. TCCGCAAA  0.328
6. CGGCGGTA  0.323
7. GAGCTTCC  0.309
8. AATTCCCG  0.298
9. ACAATCGG  0.288
10. ACATCCGA  0.259
11. CGGGTGAC  0.249
12. CGGGACAC  0.245
13. ATCGGACA  0.221
14. CCCGACGC  0.22
15. GTCGGACA  0.218
16. GCCGTCAC  0.217
17. CCCGGTGC  0.215
18. GGACCGAC  0.212
19. ATCGCGAT  0.209
20. CGATCGCG  0.19
21. CGGATTAG  0.175
22. GAGGCGGA  0.175
23. AGGTATCC  0.166
24. AACGCCGC  0.163
25. AATTGCGG  0.155
26. GCGACGCC  0.153
27. CACCGCAA  0.143
28. AGTAACGG  0.134
29. GCACTCGC  0.121
30. AGAATATG  0.103
31. AATGATGG  0.102
32. CACAGGAA  0.101
33. CGTGTTGC  0.0931
34. CCCGATCA  0.0819
35. GGAGTCCC  0.081
36. CGTGATTC  0.0803
37. CTTCATCA  0.0769
38. GACCTTAC  0.0765
39. AATCTCAA  0.073
40. AAAAAATG  0.0704
41. AACTAATT  0.0698
42. AAAACTGG  0.0632
43. CCGATAGC  0.059
44. CGTGAAAA  0.0541
45. GACCTGGC  0.0511
46. CAAGGGGC  0.046
47. GATCCAAC  0.0435
48. AAGACGCG  0.0421
49. ATGGAGCG  0.0393
50. GGCTGTTA  0.0369
51. GATAACAC  0.0362
52. CTGGGCAA  0.0326
53. CGTCGTTA  0.0289
54. ACTCGTAA  0.0255
55. CGGCCCTC  0.0254
56. ATATTCAC  0.0248
57. CGAAGCAC  0.0235
58. AGCAAACT  0.0227
59. CGTGAATA  0.0178
60. ACAGCATG  0.0163
61. GCTTTCTA  0.0134
62. CGGTTCTC  0.0124
63. GGAGGAAA  0.0123
64. ATCTGGCG  0.0115
65. CAAGAATG  0.0114
66. AGTGGTCG  0.0108
67. CCAACAGC  0.00648
68. CCGCTACG  0.00508
69. CCCTATAC  0.00357
70. CCTCCGCA  0.00168
71. CGCAGACC  0.00034
72. ATTGGCGG  -0.00314
73. TCGCCACA  -0.00326
74. GGGAAGGA  -0.00585
75. GTGCTGCA  -0.00698
76. GCGGCTGA  -0.00796
77. CCAACGGC  -0.0155
78. CGTTTACC  -0.016
79. AGATAGCC  -0.018
80. ACACAATG  -0.0193
81. ACGGGGGC  -0.0193
82. CAGAATTC  -0.0204
83. ATCTTCTG  -0.0223
84. AACATGGA  -0.0225
85. CATATATC  -0.0239
86. AGGATATA  -0.0249
87. TAAGCTTA  -0.0256
88. GGGATAGA  -0.029
89. CGCTGGTC  -0.0335
90. CCACGTCC  -0.0345
91. TAGTTCAA  -0.0367
92. AACTCACG  -0.0378
93. ACATACAC  -0.0402
94. GGTGTTAC  -0.041
95. ACTTTTTC  -0.0415
96. TTCAAAAA  -0.0428
97. GTTCGAGA  -0.046
98. GGGATCAC  -0.0461
99. AGACAAAA  -0.0462
100. CACAGTGG  -0.0483
101. ACTGCATG  -0.0506
102. CCCTATAG  -0.0512
103. ACCTCGCC  -0.0532
104. GATGTGCC  -0.0568
105. CAAGCAAA  -0.0569
106. CAGAACTC  -0.0575
107. ACCCCAAG  -0.0627
108. GCGTGCGA  -0.0633
109. CCAGTGTA  -0.0646
110. GTAGTAAC  -0.0648
111. AAGTGACA  -0.0683
112. CACACAAG  -0.0692
113. CACAAGGA  -0.0715
114. CCATCTGA  -0.0777
115. CTATTCTA  -0.0816
116. AAGTACCC  -0.085
117. GGGTGTGA  -0.0882
118. ACCTGTTG  -0.0894
119. CAATTTAA  -0.093
120. AACACGAC  -0.0949
121. TAATGACA  -0.0988
122. CTGAGCAG  -0.103
123. TAGTGAGA  -0.105
124. AACTTCCT  -0.108
125. AACCCACA  -0.109
126. ATCTAACA  -0.11
127. CCTGTTAG  -0.111
128. TGGTGACA  -0.114
129. ACAGCACT  -0.116
130. ATCAGGGC  -0.117
131. AAGATCTA  -0.121
132. ATAAAGCC  -0.122
133. CACTTATC  -0.126
134. CATCCATA  -0.128
135. ATGCTGGA  -0.129
136. CCACCTCA  -0.13
137. ACTGGTAG  -0.13
138. CCAGACAG  -0.131
139. AGGGACTA  -0.133
140. ATCTCTGG  -0.134
141. GCTAGCAC  -0.136
142. AACGTCCA  -0.136
143. AAGAAGAC  -0.14
144. TGGAGACA  -0.147
145. ACTTAGCA  -0.148
146. AAAATAGC  -0.151
147. CACACATC  -0.152
148. TCAGTTAA  -0.154
149. GCTCCTCC  -0.156
150. AATAGCCT  -0.161
151. TATACATA  -0.162
152. CAGCCTCA  -0.164
153. CAATGTTA  -0.17
154. GGCGACCA  -0.174
155. ACGACTTC  -0.174
156. GGCGTACA  -0.187
157. CTTACAAC  -0.202
158. GCTGACGA  -0.203
159. CAGTAGAA  -0.203
160. GCATTGAC  -0.205
161. GAGGCACC  -0.206
162. AGGTGTAA  -0.211
163. CGATAGGC  -0.216
164. AGGAGTAT  -0.226
165. AGTAACTG  -0.23
166. ACTGGGGG  -0.231
167. GTTATAGA  -0.235
168. GCTTTAGA  -0.238
169. ATGGTGAC  -0.245
170. GTAGAACA  -0.263
171. TACCCATA  -0.263
172. CCTATACG  -0.285
